Measurements as given in PubChem BioAssay AID720709 (National Center for Advancing Translational Sciences (NCATS), 2013).
The whole screen tested about 360,000 compounds, of which about 520 (0.14%) were called active. This list was built around the results that the source calls inconclusive (neither active nor inactive); the mix of calls is not that of the screen. Calls come from the whole dose curve; as a rule, active = well fitted inhibition curve with a large enough effect; inconclusive = small, poorly fitted or top-dose-only effect; inactive = no such curve, though single readings can be large or run the other way. Potencies beside an inconclusive call are fits to weak or partial responses and may not hold up.

Each compound was assayed against Rap guanine nucleotide exchange factor 3 (Homo sapiens) (UniProt O95398) (assay: qHTS for Antagonist of cAMP-regulated guanine nucleotide exchange factor 3 (EPAC1): primary screen). Conditions: EPAC1 GEF assay, Rap1b-BODIPY-GDP exchange fluorescence; activity change, negative = inhibition: at 115 µM (top of the series).
Note: nearly all actives have a fitted effect of over 50% in size.
Potency is the fitted concentration of half-maximal effect; tags give direction and shape of the fitted curve.
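Throughout, for activity change, negative = inhibition: plate controls were vehicle for no effect and positive control for full effect.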

Chain of UniProt O95398 (O95398 whole entry, looked up): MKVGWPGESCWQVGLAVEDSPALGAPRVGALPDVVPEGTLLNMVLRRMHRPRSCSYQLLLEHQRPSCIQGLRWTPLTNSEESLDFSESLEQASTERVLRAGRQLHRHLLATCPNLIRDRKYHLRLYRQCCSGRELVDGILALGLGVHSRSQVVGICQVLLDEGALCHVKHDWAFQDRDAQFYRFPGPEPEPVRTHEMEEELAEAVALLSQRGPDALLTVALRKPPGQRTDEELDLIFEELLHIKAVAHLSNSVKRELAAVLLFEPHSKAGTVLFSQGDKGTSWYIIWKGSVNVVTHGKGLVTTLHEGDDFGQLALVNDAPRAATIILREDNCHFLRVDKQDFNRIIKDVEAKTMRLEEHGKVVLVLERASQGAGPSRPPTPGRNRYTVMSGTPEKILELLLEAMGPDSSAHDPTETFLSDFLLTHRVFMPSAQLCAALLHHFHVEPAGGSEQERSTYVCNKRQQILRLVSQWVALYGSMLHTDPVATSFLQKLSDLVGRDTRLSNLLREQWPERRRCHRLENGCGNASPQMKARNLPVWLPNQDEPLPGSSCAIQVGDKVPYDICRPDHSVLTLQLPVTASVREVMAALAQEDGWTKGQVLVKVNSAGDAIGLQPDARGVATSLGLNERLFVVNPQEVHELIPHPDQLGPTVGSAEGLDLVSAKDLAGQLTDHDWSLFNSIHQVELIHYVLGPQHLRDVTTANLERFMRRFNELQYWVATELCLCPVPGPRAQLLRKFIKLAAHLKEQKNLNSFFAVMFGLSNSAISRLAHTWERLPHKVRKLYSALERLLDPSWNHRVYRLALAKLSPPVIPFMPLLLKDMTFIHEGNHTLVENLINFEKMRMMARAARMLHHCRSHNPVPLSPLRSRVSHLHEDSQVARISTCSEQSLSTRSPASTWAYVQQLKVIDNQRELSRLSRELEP

Potency, inconclusive:
CCCN(C(=O)c1cc(-c2ccco2)nc2ccccc12)c1c(N)n(Cc2ccccc2)c(=O)[nH]c1=O 79.4 µM [inhibitor, partial curve], COc1ccc(S(=O)(=O)NCC(c2cccnc2)N2CCN(Cc3ccccc3)CC2)cc1 (stereo unspecified) 100 µM [inhibitor, single point], CCCn1nnc(NC(=O)c2cccc(OCC)c2)n1 10 µM [inhibitor, partial curve], NCCCNC(=O)c1ccc(/C=N/O)nc1 11.2 µM [inhibitor, full curve], Cn1cccc1CC(=O)NNC(=O)Nc1ccc(F)cc1 35.5 µM [inhibitor, full curve, poor fit], Cc1cc(NC(=O)CSCC(=O)Nc2cc(C(F)(F)F)ccc2N2CCOCC2)no1 100 µM [inhibitor, single point], N#CCC(=O)N/N=C/c1coc2ccccc2c1=O 70.8 µM [inhibitor, single point], O=C(O)CC/C(=C/c1cccc(NC(=O)c2ccccc2Cl)c1)c1nc2ccccc2s1 25.1 µM [inhibitor, full curve], CCN(CC)C(=O)COC(=O)c1cc(-c2ccco2)nc2ccccc12 79.4 µM [inhibitor, partial curve], COc1cc(/C=C(\C#N)C(=O)NC(C)C)cc(Cl)c1O 89.1 µM [inhibitor, single point], COC(=O)[C@]12CCCCC=C1N(Cc1cccc3ccccc13)C(=O)[C@H](CC(=O)NCc1cccc(C(F)(F)F)c1)C2 100 µM [inhibitor, partial curve, poor fit], CC(C)c1ccc(S(=O)(=O)NC2CCS(=O)(=O)C2)cc1 (stereo unspecified) 100 µM [inhibitor, single point], Cc1ccc(-n2c(-c3ccc(Cl)cc3)n[nH]c2=S)cc1 10 µM [inhibitor, partial curve], CCCCn1c(=O)[nH]c(=O)c2c1nc(-c1ccccc1F)n2Cc1ccccc1OC 79.4 µM [inhibitor, single point], O=C(CN(Cc1ccco1)C(=O)c1ccc(Cl)cc1)Nc1c(Cl)cc(Cl)cc1Cl 100 µM [inhibitor, single point], COc1cc(/C=C/c2cc(C(=O)O)c3ccccc3n2)ccc1OC(F)F 39.8 µM [inhibitor, partial curve], O=S(=O)(Nc1ccc2c(c1)OCCO2)c1ccc(F)c(F)c1 89.1 µM [inhibitor, single point], CCOC(=O)c1ccc(N2C(=O)C=C(N3CCOCC3)C2=O)cc1 79.4 µM [inhibitor, single point], CCCc1cc(=O)[nH]c(SCC(=O)Nc2sc3c(c2C#N)CCC(C)C3)n1 (stereo unspecified) 79.4 µM [inhibitor, single point], CN(C)/C=C/c1c([N+](=O)[O-])c2ccc(O)cc2n1-c1ccccc1 79.4 µM [inhibitor, partial curve], C/C(=N/NC(=O)c1cc2ccccc2cc1O)C1C(=O)c2ccccc2C1=O 39.8 µM [inhibitor, single point], COCCNC(=O)CSc1nc2ccc(N3CCOCC3)cc2c(=O)n1CCc1ccccc1 89.1 µM [inhibitor, single point], O=C(Nc1ccc(N2CCN(c3ccc(C(F)(F)F)cn3)CC2)nc1)c1cccs1 100 µM [inhibitor, single point], COc1ccccc1N(CC(=O)NC(C)(C)C)S(=O)(=O)c1cccs1 100 µM [inhibitor, single point], CN(Cc1ccc(Cl)c(Cl)c1)C(=O)c1[nH]c(C(F)(F)F)nc1-c1ccccc1 8.91 µM [inhibitor, full curve, poor fit], COC(=O)c1c(NC(=O)Cc2cccs2)sc2c1CCCC2 100 µM [inhibitor, single point], CCOC(=O)/C(=N\Nc1ncnc2ccccc12)c1ccc(C)cc1 39.8 µM [inhibitor, single point], COc1cccc2cc(C(C)=O)oc12 25.1 µM [inhibitor, full curve, poor fit], CCOC(=O)C1CCN(C(=O)COC(=O)/C=C/c2ccccc2)CC1 100 µM [inhibitor, single point], O=C(Nc1cc(S(=O)(=O)N2CCCCC2)ccc1O)c1ccccc1NS(=O)(=O)c1ccc(F)c(F)c1 39.8 µM [inhibitor, partial curve], CN(C)c1ccc(-c2nnc(-c3ccccc3F)o2)cc1 89.1 µM [inhibitor, single point], CC(=O)N1c2ccc(S(=O)(=O)NCC3CCC(C(=O)Nc4cc(C)ccn4)CC3)cc2CC1C (stereo unspecified) 100 µM [inhibitor, single point], O=C(COC(=O)c1c[nH]c(=O)[nH]c1=O)Nc1cccc([N+](=O)[O-])c1 39.8 µM [inhibitor, single point], COc1cc(/C=C/C(=O)OCC(=O)Nc2ccc(Cl)cn2)ccc1O 35.5 µM [inhibitor, partial curve, poor fit], Cc1ccccc1CN1N=C(/C=C/c2ccccc2)CCC1=O 35.5 µM [inhibitor, partial curve, poor fit], O=C(Nc1ccc(OCC(F)(F)C(F)F)c(C(F)(F)F)c1)c1ccccc1 10 µM [inhibitor, full curve, poor fit], COc1ccc(NC(=O)c2cccc(NC(=O)c3ccccc3)c2)cc1 17.8 µM [inhibitor, full curve, poor fit], CC(C)C(C)NC(=O)COc1ccc([N+](=O)[O-])cc1Cl (stereo unspecified) 100 µM [inhibitor, single point], Cc1cc2occ(CC(=O)N(C)CC(=O)Nc3ccc(F)cc3)c2cc1C 100 µM [inhibitor, partial curve], Cc1nn(Cc2ccccc2Cl)c2sc(C(=O)OC3CCCC3=O)cc12 (stereo unspecified) 79.4 µM [inhibitor, partial curve], Cc1cccc(C(=O)Nc2cccc(C(=O)N/N=C/c3cccc(C)n3)c2)c1 56.2 µM [inhibitor, partial curve, poor fit], Cc1sc2ncnc(N/N=C/c3cccc(O)c3)c2c1C 39.8 µM [inhibitor, partial curve], Cc1ccccc1OCc1nc2ccccc2c(=O)n1/N=C/c1c[nH]c2ccccc12 63.1 µM [inhibitor, partial curve, poor fit], Cc1csc(NC(=O)c2ccc(-c3ccc(Cl)cc3Cl)o2)n1 89.1 µM [inhibitor, single point], COC(=O)C1C(=O)C=C(Nc2ccc(F)cc2)CC1c1ccc(OC)cc1 (stereo unspecified) 100 µM [inhibitor, single point]

Potency, inactive:
CC1CCCC(NC(=O)COC(=O)[C@@H](NC(=O)c2ccc(F)cc2)C(C)C)C1C (stereo partly specified), c1ccc(CNn2nnc3ccccc32)cc1, COc1ccc(C(=O)NCC(c2ccco2)N2CCc3ccccc3C2)cc1 (stereo unspecified), CCOc1cc(N2CCOCC2)c(OCC)cc1NC(=O)COC(=O)[C@@H]1CCCN1S(=O)(=O)c1ccccc1F, COc1ccc(NC(=O)Nc2cccc3c2O[C@@H](CN(C)CC2CCCCC2)[C@@H](C)CN([C@H](C)CO)C3=O)cc1, CC(=O)NC(c1ccccc1)c1nc(-c2cnc3ccccc3c2)cs1 (stereo unspecified), CCNC(=S)N/N=C/c1cc(C)ccc1C, CC(C)(C)NC(=O)C(c1cc2ccccc2o1)n1c(=O)c(-c2ccco2)nc2ccccc21 (stereo unspecified), CCN(C(=O)COC(=O)/C=C/c1ccc(S(=O)(=O)N2CCc3ccccc32)cc1)C1CCS(=O)(=O)C1 (stereo unspecified), O=[N+]([O-])c1ccc(COn2nnc3ccccc32)cc1, COc1cc2c(cc1OC)CN(c1ccc(C(F)(F)F)cn1)CC2, COc1cc(/C=C2\C(=O)N(c3ccc(NC(C)=O)cc3)N=C2c2ccccc2)ccc1O, O=C(NNC(=O)c1ccccc1[N+](=O)[O-])c1csc(N2CCOCC2)n1, O=C(O)c1ccccc1C(=O)c1ccc2c(c1)N(Cc1cccc(F)c1)C(=O)CO2, CCCC(=O)Nc1ccc(C(=O)COC(=O)C2=COCCO2)cc1, C/C(=N\Nc1ncnc2sc(C)c(C)c12)c1ccccn1, O=[N+]([O-])c1ccc2c(c1N1CCCCC1)=NC1(CCCCC1)[N+]=2[O-]

Potency, active:
CCOC1=CC2=C(C(=O)C(Cl)=CC2=O)[C@@H]2CN(S(=O)(=O)c3ccc(C)cc3)[C@@H](c3ccccc3)[C@H]12 56.2 µM, COc1ccc(-c2csc(NC(=O)c3ccccc3NS(=O)(=O)c3ccc(F)c(F)c3)n2)cc1 50.1 µM

Activity change, negative = inhibition, inconclusive:
O=C(N/N=C/c1cc2c(cc1Br)OCO2)c1c[nH]c2ccccc12 -16.5% [inhibitor], COc1ccc(Cl)cc1S(=O)(=O)N1CCCC(C(=O)N2CCCC2)C1 (stereo unspecified) -8.78% [inhibitor]
